Data taken from PubChem BioAssay AID493208 (National Center for Advancing Translational Sciences (NCATS), 2011).
Among all 44,000 compounds or so, about 340 (0.77%) were called active. Inconclusive results (about 5%) are left out. Calls follow the shape of the dose curve; as a rule, active = well fitted inhibition curve with a large enough effect; inconclusive = small, poorly fitted or top-dose-only effect; inactive = flat fitted curve, though single readings scatter. Some of the results follow.

Experiment: Acumen qHTS Assay for Inhibitors of the mTORC1 Signaling Pathway in MEF (Tsc2-/-, p53-/-) Cells: Sytravon;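 also: plate controls were DMSO for no effect and rapamycin for full effect; nearly all actives have a fitted effect of over 50% in size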
Details: phospho-rpS6 immunofluorescence/PI, 24 h; series mostly up to 38.3 µM; activity change, negative = inhibition: at the top concentration
In short: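 Read-out: phospho-S6 Alexa-488 intensity over PI intensity per well, scored as % active cells using thresholds from rapamycin (7.5 nM) and DMSO controls. Tsc2-/-, p53-/- MEFs exposed to compound for 24 h; PI cell count recorded as viability.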
For `COc1ccc(NC(=O)Cn2c(=O)n(-c3ccc(OC)c(OC)c3)c(=O)c3ccccc32)cc1`, the “activity change, negative = inhibition” value was inactive: -5.68%.
With `Cc1noc(/C=C/c2cccs2)c1S(=O)(=O)N1CCC(C(=O)Nc2ccc(F)c(Cl)c2)CC1` the “activity change, negative = inhibition” value was inactive: -22.9%.
With `Cc1cccc(N2CCN(c3ncnc4c3nc3n4CCCCC3)CC2)c1C` the “activity change, negative = inhibition” value was inactive: 1.2%.
In the case of `CCOC(=O)c1ccc(NC(=O)c2c(-c3c(F)cccc3Cl)noc2C)cc1`, the “activity change, negative = inhibition” value is reported as inactive: -17.1%.
In the case of `CCC(=O)N1CCc2cc(Br)cc(S(=O)(=O)N3CCC(C(=O)NCCCOC(C)C)CC3)c21`, the “activity change, negative = inhibition” value is reported as inactive: 2.83%.
In the case of `COC(=O)c1ccccc1NC(=O)c1ccc(COc2ccccc2Cl)o1`, the “activity change, negative = inhibition” value is reported as inactive: 18.3%.
In the case of `COc1ccc(C2CC(=O)c3cc(-c4nc(-c5cccc(Cl)c5)cs4)c(=O)[nH]c3C2)cc1OC` (stereo not given), the “activity change, negative = inhibition” value is reported as inactive: 1.42%.
For `CCOc1ccc(NC(=O)c2ccc(NC(=O)N3CCSc4ncccc43)cc2)cc1`, the “activity change, negative = inhibition” value was inactive: -6.66%.
For `CSc1ncc2c(n1)-c1ccccc1N(Cc1ccc(Cl)cc1)S2(=O)=O`, the “activity change, negative = inhibition” value was inactive: 5.75%.
In the case of `CCOC(=O)c1cnn(-c2ccc(C(=O)Nc3cc(OC)c(OC)c(OC)c3)cc2)c1N`, the “activity change, negative = inhibition” value is reported as inactive: 0.628%.
For `O=C(CSc1ccccc1)N1CCc2c([nH]c3ccccc23)C1c1ccc(F)cc1` (stereo not given), the “activity change, negative = inhibition” value was inactive: 2.7%.
In the case of `CC1CCN(S(=O)(=O)c2cn(CC(=O)Nc3cccc(C(F)(F)F)c3)c(=O)c3ccccc23)CC1`, the “activity change, negative = inhibition” value is reported as inactive: 1.14%.
For `O=C(Cn1cc(C(=O)c2ccco2)c2ccccc21)Nc1ccc(Br)cc1`, the “activity change, negative = inhibition” value was inactive: 8.64%.
With `Nc1c(-c2nc(-c3cccs3)no2)nnn1-c1ccc(Cl)cc1` the “activity change, negative = inhibition” value was inactive: -2.72%.
With `COc1cccc(C(=O)Nc2cccc(C(=O)OCc3cc(=O)n4nc(C5CC5)sc4n3)c2)c1` the “activity change, negative = inhibition” value was inactive: 0%.
In the case of `CCn1c(C(=O)NCCc2ccc(OC)c(OC)c2)cc2sc(Cl)cc21`, the “activity change, negative = inhibition” value is reported as inactive: -5.3%.
With `COC(=O)c1cc2oc3ccccc3c2n1Cc1nc(-c2ccc(OC)cc2)oc1C` the “activity change, negative = inhibition” value was inactive: 1.01%.
For `CCC1CCCCN1C(=O)Cn1c(=O)n(CCCCCC(=O)NCc2ccccc2)c(=O)c2sccc21` (stereo not given), the “activity change, negative = inhibition” value was inactive: -7.36%.
In the case of `CSc1ncc(Cl)c(C(=O)Nc2ccc(NC(C)=O)cc2)n1`, the “activity change, negative = inhibition” value is reported as inactive: 2.73%.
In the case of `COc1ccc(Cl)cc1NC(=O)c1c(NCc2ccc(C)o2)sc2c1CCCCC2`, the “activity change, negative = inhibition” value is reported as inactive: -5.99%.
For `CCCCNc1nc(Oc2ccc(OCC)nn2)nc(N2CCOCC2)n1`, the “activity change, negative = inhibition” value was inactive: 1.7%.
In the case of `COc1cccc(NC(=O)c2ccc3nc(CCc4ccccc4)oc3c2)c1`, the “activity change, negative = inhibition” value is reported as inactive: -8.44%.
For `CCCn1c2ccccc2c2cnn(CC(=O)N(C)c3ccc(F)cc3)c(=O)c21`, the “activity change, negative = inhibition” value was inactive: 0.0836%.
For `COc1cccc(CSc2nc3ccccc3c3nc(CCn4c(C)nc5ccccc54)nn23)c1`, the “activity change, negative = inhibition” value was inactive: -4.03%.
In the case of `Cc1ccc(-n2ncc(C(=O)NCc3ccccc3C)c2-n2cccc2)cc1`, the “activity change, negative = inhibition” value is reported as inactive: -4.64%.
In the case of `O=C(NCc1ccc2c(c1)CCN2C(=O)c1ccc(F)cc1)c1cc2ccccc2[nH]1`, the “activity change, negative = inhibition” value is reported as inactive: -7.09%.
With `COc1ccc(-c2[nH]c3ccccc3c2SCCNC(=O)c2cc(OC)c(OC)c(OC)c2)cc1` the “activity change, negative = inhibition” value was inactive: 1.35%.
In the case of `COc1ccccc1CNC(=O)CCC(=O)N1CC2CCCN2c2ccccc21` (stereo not given), the “activity change, negative = inhibition” value is reported as inactive: -2.81%.
In the case of `COc1ccc(SCc2cc(=O)c3cc(Cl)ccc3[nH]2)cc1`, the “activity change, negative = inhibition” value is reported as inactive: -14.4%.
For `c1ccc(CNc2nc3c(-c4ccccc4)nnn3c3ccccc23)cc1`, the “activity change, negative = inhibition” value was inactive: -12%.
For `O=C(Cc1ccc(Cl)cc1)Nc1ccc2nn(-c3ccc(Cl)cc3)nc2c1`, the “activity change, negative = inhibition” value was inactive: -7.33%.
For `Cc1cccc(C)c1OCCn1c(C2CC(=O)N(c3cccc(Cl)c3)C2)nc2ccccc21` (stereo not given), the “activity change, negative = inhibition” value was inactive: 1.38%.
For `COc1cccc(NC(=O)C2CCCN(S(=O)(=O)c3c(C)nn(C)c3C)C2)c1` (stereo not given), the “activity change, negative = inhibition” value was inactive: -11.1%.
In the case of `CCc1ccccc1N1C(=O)N(Cc2ccc(C#N)cc2)c2ccccc2S1(=O)=O`, the “activity change, negative = inhibition” value is reported as inactive: -0.132%.
In the case of `CC(C)Sc1oc(-c2cccs2)nc1S(=O)(=O)c1ccc(Cl)cc1`, the “activity change, negative = inhibition” value is reported as inactive: -29.1%.
With `CCOc1ccc(OCC)c(NS(=O)(=O)c2cc(-c3cc(C)no3)ccc2C)c1` the “activity change, negative = inhibition” value was inactive: -3.56%.
For `Cc1ccc(CNC(=O)c2ccc(Cn3c(=O)c4ccccc4n(CC(=O)Nc4ccc(C)cc4C)c3=O)cc2)cc1`, the “activity change, negative = inhibition” value was inactive: -2.52%.
With `CCOc1ccc(S(=O)(=O)NCCc2sc3nc(-c4ccc(F)cc4)nn3c2C)cc1` the “activity change, negative = inhibition” value was inactive: -6.75%.
In the case of `CCn1c2ccccc2c2cc(CN3CCN(Cc4ccccc4F)CC3)ccc21`, the “activity change, negative = inhibition” value is reported as inactive: -9.36%.
In the case of `CCOc1ccccc1NC(=O)C(=O)NCCc1sc(-c2cccc(F)c2)nc1C`, the “activity change, negative = inhibition” value is reported as inactive: 2.4%.
In the case of `CCc1ccc(NCc2cc3cc4c(cc3n(CC(=O)Nc3ccc(C)cc3)c2=O)OCO4)cc1`, the “activity change, negative = inhibition” value is reported as inactive: -5.11%.
In the case of `CCC(=O)Oc1ccc(/C=C(\C#N)c2nc3ccccc3[nH]2)cc1OC`, the “activity change, negative = inhibition” value is reported as inactive: 16.2%.
With `Cc1oc2ncnc(N3CCCCC3)c2c1C(=O)N1CCN(c2cccc(C(F)(F)F)c2)CC1` the “activity change, negative = inhibition” value was inactive: 1.72%.
With `CCOc1ccc(NC(=O)NCc2c(-n3cccc3)sc3c2CCCC3)cc1` the “activity change, negative = inhibition” value was inactive: -1.75%.
With `Cc1ccc(Nc2c(-c3cccs3)nc3nc(C)cc(C)n23)cc1` the “activity change, negative = inhibition” value was inactive: -3.39%.
With `CCOc1ccc(NC(=O)C2CCCN(S(=O)(=O)c3cccc4nonc34)C2)cc1` (stereo not given) the “activity change, negative = inhibition” value was inactive: 0.777%.
In the case of `CC(=O)c1ccc(NC(=O)CSc2nnc3ccc(-c4ccc(Cl)cc4)nn23)cc1`, the “activity change, negative = inhibition” value is reported as inactive: -0.529%.
For `CCOc1ccc(NC(=O)CSc2nccn2Cc2ccco2)cc1`, the “activity change, negative = inhibition” value was inactive: -3.29%.
For `COc1ccc(-c2nc3ccccc3s2)cc1NC(=O)COc1ccc(C)cc1`, the “activity change, negative = inhibition” value was inactive: 0.197%.
In the case of `CCC1CCCCN1S(=O)(=O)c1ccc(C(=O)Nc2sc3c(c2C(=O)NC)CCC3)cc1` (stereo not given), the “activity change, negative = inhibition” value is reported as inactive: -2.88%.
In the case of `CCOCCCN1C(=O)CN(C2CCCCCC2)C(=O)C1c1ccc(OC(C)C)c(OC)c1` (stereo not given), the “activity change, negative = inhibition” value is reported as inactive: 3.06%.
With `COc1ccc(OCC(=O)OCc2cc(=O)n3cc(C)sc3n2)cc1` the “activity change, negative = inhibition” value was inactive: -3.5%.
With `CCc1ccccc1NC(=O)c1ccc2c(O)c(S(=O)(=O)c3ccccc3)c(=O)[nH]c2c1` the “activity change, negative = inhibition” value was inactive: -1.96%.
With `COc1ccc(NC(=O)c2cc3nc(-c4ccc(C)c(C)c4)cc(C(F)(F)F)n3n2)cc1` the “activity change, negative = inhibition” value was inactive: 7.71%.
For `COc1ccccc1CNC(=O)c1oc2ccc(S(=O)(=O)N3CCCCC3)cc2c1C`, the “activity change, negative = inhibition” value was inactive: 7.04%.
With `Cc1ccc(CSc2ncc(Cl)c(C(=O)NCCc3ccc(S(N)(=O)=O)cc3)n2)cc1` the “activity change, negative = inhibition” value was inactive: -4.01%.
For `CCOC(=O)C1CCN(C(=O)CCS(=O)(=O)c2cc3c(cc2Cl)NC(=O)CO3)CC1`, the “activity change, negative = inhibition” value was inactive: 9.68%.
For `Cc1ccc(N(CC(=O)NCc2ccc(Cl)cc2)S(=O)(=O)N(C)C)cc1`, the “activity change, negative = inhibition” value was inactive: 0.909%.
In the case of `COc1ccc(NC(=O)CSc2nc(-c3ccc(OC)cc3)[nH]c2-c2ccc(OC)cc2)cc1`, the “activity change, negative = inhibition” value is reported as inactive: 2.42%.
With `COc1ccc(-c2cc(OC(=O)c3ccc(Cl)cc3)c3c(C)oc(C)c3c(=O)c2)cc1` the “activity change, negative = inhibition” value was inactive: -1.28%.
